{"source": "PubChem BioAssay AID463173", "about": "(ICCB-Longwood Screening Facility, Harvard Medical School, 2010)", "note": "Out of some 52,000 compounds screened, about 4,300 (8.3%) were called active. Rule as the data show it: active = survival mostly below about 52% (no sharp cut-off); inactive = mostly above about 56%. Some of the results follow.", "data": [{"system": "DeltatarO mutant", "assay": "growth inhibition of S. aureus wild type versus tarO mutant, primary screen, teichoic acid synthesis inhibitors, RN4220, OD600 (AID 463173)", "conditions": "OD600, 18 h, stronger effect = lower value, screened at 18.75 µg/mL (by protocol)", "values": [{"smiles": "COc1cccc(/C=C(\\C#N)c2nc3ccc(C)cc3[nH]2)c1", "survival": "inactive: 46%"}, {"smiles": "Cn1c(=O)c2c(SCC(=O)NCC3CCCO3)nc(-c3ccccc3F)nc2n(C)c1=O", "note": "(stereo not given)", "survival": "inactive: 95%"}, {"smiles": "CCOC(=O)c1ccc(NS(=O)(=O)c2cc3c(cc2C)n(C)c(=O)c(=O)n3C)cc1", "survival": "inactive: 99%"}, {"smiles": "O=C(Cn1nc(C(F)F)cc1C1CC1)N1CCCC1", "survival": "inactive: 89%"}, {"smiles": "CCOc1ccc(NC(=O)CSc2oc(-c3cccs3)nc2S(=O)(=O)c2ccc(Cl)cc2)cc1", "survival": "inactive: 63%"}, {"smiles": "O=C(Cn1c(=O)n(-c2ccccc2)c(=O)c2ccc(C(=O)NCc3ccc4c(c3)OCO4)cc21)Nc1ccc(Br)cc1F", "survival": "inactive: 117%"}, {"smiles": "COc1ccc(CNc2nc(-c3ccc(OC)c(OC)c3)cc(C(F)(F)F)n2)cc1", "survival": "active: 11%"}, {"smiles": "CCCCSCCCNC(=O)CN1C(=O)COc2ccc(S(=O)(=O)N3CCCC3)cc21", "survival": "inactive: 66%"}, {"smiles": "CN1CC=C2C(C#N)=C(N)C(C#N)(C#N)C(Cc3ccccc3)C2C1", "note": "(stereo not given)", "survival": "inactive: 75%"}, {"smiles": "COc1ccc(-c2noc(-c3ccc(N4CCOCC4)c([N+](=O)[O-])c3)n2)cc1OC", "survival": "inactive: 52%"}, {"smiles": "CCOCCCNC(=O)N1CCN(S(=O)(=O)c2ccc3c(ccn3C)c2)CC1", "survival": "inactive: 112%"}, {"smiles": "O=C(NCc1cccnc1)c1ccc(S(=O)(=O)N2CCCCC2)cc1", "survival": "inactive: 97%"}, {"smiles": "COc1ccccc1N1CCN(CCC(=O)Nc2cccc(F)c2)CC1", "survival": "inactive: 48%"}, {"smiles": "O=C(CSC1=Nc2ccccc2C2=NC(CCC(=O)NC3CCCCC3)C(=O)N12)Nc1cccc(Cl)c1", "note": "(stereo not given)", "survival": "inactive: 112%"}, {"smiles": "CCOC(=O)C1CCC(CN(Cc2c(Cl)cccc2Cl)S(=O)(=O)c2ccc(F)c(C)c2)CC1", "note": "(stereo not given)", "survival": "inactive: 89%"}, {"smiles": "Cc1cc(NC(=O)c2ccc(Cl)c(Cl)c2)ccc1-c1cc2ccccc2oc1=O", "survival": "inactive: 66%"}, {"smiles": "COc1ccc(NC(=O)Cn2c(=O)n(-c3ccccc3)c(=O)c3ccc(C(=O)NCc4ccc5c(c4)OCO5)cc32)cc1", "survival": "inactive: 128%"}, {"smiles": "CCCSc1ncc(Cl)c(C(=O)Nc2ccc(CC)cc2)n1", "survival": "active: 42%"}, {"smiles": "Oc1cccc(Nc2nc(-c3ccccc3)nc3ccccc23)c1", "survival": "active: 10%"}, {"smiles": "CC1(C)C(=O)N(CC(=O)Nc2ccc(OC(F)(F)F)cc2)c2ccccc21", "survival": "inactive: 85%"}, {"smiles": "Cc1ccc(CNC(=O)CSc2nc3ccsc3c(=O)n2-c2ccc(C(=O)O)cc2)cc1", "survival": "inactive: 95%"}, {"smiles": "CCN(CCCNC(=O)c1cc2cc3cc(OC)ccc3nc2s1)c1ccccc1", "survival": "active: 53%"}, {"smiles": "COc1ccccc1CNC(=O)c1nn(-c2ccc(C)cc2)c(=O)c2c1c1ccccc1n2C", "survival": "inactive: 112%"}, {"smiles": "COc1ccc(CCNC(=O)CSc2nc3ccccc3nc2Cc2ccc(C)cc2)cc1OC", "survival": "active: 35%"}, {"smiles": "Cc1cccc(CSc2ncc(Cl)c(C(=O)Nc3sc4c(c3C#N)CCCC4)n2)c1", "survival": "inactive: 114%"}, {"smiles": "CCN(CC)c1nc2c(S(=O)(=O)c3ccc(C)cc3)nnn2c2ccsc12", "survival": "inactive: 75%"}, {"smiles": "COc1ccccc1NC(=O)CSc1oc(-c2cccs2)nc1S(=O)(=O)c1ccc(C)cc1", "survival": "inactive: 61%"}, {"smiles": "O=C(NCc1ccccc1)c1cccc(NC(=O)N2CCSc3ncccc32)c1", "survival": "inactive: 83%"}, {"smiles": "COc1cc(C2NC(=O)N(C)C3=C2C(=O)N(c2ccccc2)C3)ccc1O", "note": "(stereo not given)", "survival": "inactive: 77%"}, {"smiles": "CCC(C)NC(=O)c1sc2nc(C)c(C(=O)Nc3ccc(C)cc3C)c(-c3ccc(Br)cc3)c2c1N", "note": "(stereo not given)", "survival": "inactive: 78%"}, {"smiles": "Cc1ccc2[nH]c(=O)c3cc(C(=O)N4CCN(c5ccccc5F)CC4)sc3c2c1", "survival": "inactive: 88%"}, {"smiles": "O=C(N/C(=C\\c1ccco1)C(=O)N1CCCC1)c1ccccc1", "survival": "inactive: 82%"}, {"smiles": "O=C(CSc1nc(-c2ccccc2)cc(=O)[nH]1)Nc1ccccc1F", "survival": "inactive: 89%"}, {"smiles": "COc1ccc(-c2cnc(NCc3ccc(C)cc3)n2C)cc1", "survival": "inactive: 121%"}, {"smiles": "CC1=C(C(=O)Nc2ccc(C)c(C)c2)C2(CCCCCC2)OC1=O", "survival": "inactive: 112%"}, {"smiles": "CCOc1ccccc1CNC(=O)Cn1nc(C)c2nn(-c3ccc(Cl)cc3)c(C)c2c1=O", "survival": "inactive: 101%"}, {"smiles": "COC(=O)COc1ccc(Oc2nc(NC(C)(C)C)nc(N3CCOCC3)n2)nn1", "survival": "inactive: 73%"}, {"smiles": "COc1ccc(N2CCN(S(=O)(=O)c3c(C)nc4sc(C)cn4c3=O)CC2)cc1", "survival": "inactive: 92%"}, {"smiles": "CC1=C(c2ccc(C)c(C)c2)S(=O)(=O)N(Cc2ccc(C(=O)NCc3ccc(C)cc3)cc2)C1=O", "survival": "inactive: 92%"}, {"smiles": "COc1ccc(Cc2nc3c4cnn(-c5ccccc5Br)c4ncn3n2)cc1", "survival": "inactive: 89%"}, {"smiles": "Cc1cccc(OCC(=O)NCc2ccc3c(c2)CCN3C(=O)c2ccccc2)c1", "survival": "inactive: 86%"}, {"smiles": "CCn1ccc2cc(S(=O)(=O)N3CCC(C(=O)NCc4ccc(OC(C)C)cc4)CC3)ccc21", "survival": "inactive: 95%"}, {"smiles": "O=C(CN1C(=O)c2cccc3cccc1c23)NC1CCCC1", "survival": "inactive: 87%"}, {"smiles": "COc1ccc(-c2nc3ccc(C(=O)NCc4ccccc4)cc3nc2-c2ccc(OC)cc2)cc1", "survival": "inactive: 90%"}, {"smiles": "Cc1ccccc1NC(=O)c1ccccc1NC(=O)c1ccccc1F", "survival": "inactive: 70%"}, {"smiles": "CCCSc1nnc2c(n1)OC(CC)N(C(C)=O)c1ccccc1-2", "note": "(stereo not given)", "survival": "inactive: 62%"}, {"smiles": "CSc1ccc(C2c3c(oc4ccc(F)cc4c3=O)C(=O)N2c2ccc(C)cn2)cc1", "note": "(stereo not given)", "survival": "inactive: 81%"}, {"smiles": "CCOc1ccc2oc(=O)cc(CN3CCN(C(=O)c4ccc(Cl)cc4)CC3)c2c1", "survival": "inactive: 86%"}, {"smiles": "CCCCc1nn2c(=O)cc(COC(=O)CNC(=O)c3ccccc3C)nc2s1", "survival": "inactive: 98%"}, {"smiles": "Cc1c(NC(=O)c2cc3ccccc3o2)cccc1-c1nc2ccccc2o1", "survival": "active: 36%"}, {"smiles": "Cc1cccc(N(C)C(=O)C2CCN(S(=O)(=O)c3cccc4nonc34)CC2)c1", "survival": "inactive: 80%"}, {"smiles": "COc1ccc(OC)c(NC(=O)c2ccc(-c3nc(COc4ccccc4)c(C)o3)cc2)c1", "survival": "inactive: 62%"}, {"smiles": "Cc1ccc2nc(Nc3ccc(Br)cc3)nc(-c3ccccc3)c2c1", "survival": "active: 35%"}, {"smiles": "Cc1ccc(C(C)C)c(OCCSc2nc(-c3cccs3)nc3cc(=O)[nH]n23)c1", "survival": "inactive: 73%"}, {"smiles": "O=C(Cn1c(=O)oc2cc(S(=O)(=O)NCc3ccccc3)ccc21)NCc1ccc(F)cc1", "survival": "inactive: 78%"}]}]}
